The record followed here is PMC12820563.

Some of the results follow. The list includes weakly bound sequences.

This experiment deals with T1, MBP-FoxP3dN (UniProt Q99JB6).
T1 sequence: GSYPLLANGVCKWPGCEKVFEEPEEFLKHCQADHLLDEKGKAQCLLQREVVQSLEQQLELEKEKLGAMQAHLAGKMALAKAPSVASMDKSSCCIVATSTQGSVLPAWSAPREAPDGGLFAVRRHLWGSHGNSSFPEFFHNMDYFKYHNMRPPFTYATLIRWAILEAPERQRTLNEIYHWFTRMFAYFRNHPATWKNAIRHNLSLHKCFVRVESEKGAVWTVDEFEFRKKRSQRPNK
Put plainly: PD-seq (MBP pull-down with sequencing). The note with it: 20 mM Tris-HCl pH 7.5, 100 mM NaCl, 1.5 mM MgCl2, 0.4 uM protein, 0.1 uM dsDNA library, 30 min, room temperature, amylose pull-down; high values mean tight binding; double strand, one strand shown.
For the sequence “GATGATTGTTCTCCCAGCTGATGAATTGTGGGGGTCGAGTAAACAAATTTTCCTAATCTTTCTGTTCAAGCGCCATCTAC”, the binding signal (RPM ratio (pull-down/input)) is 0.783.

For the sequence “GATGATTGTTCTCCCAGCTGATGAATTGAGGGCTTCGAGTAAACAAATTTTCCTAATCTTTCTGTTCAAGCGCCATCTAC”, the binding signal (RPM ratio (pull-down/input)) was found to be 0.368.

“GATGATTGTTCTCCCAGCTGATGAATTCGACTGATCGAGTAAACAAATTTTCCTAATCTTTCTGTTCAAGCGCCATCTAC”: the binding signal (RPM ratio (pull-down/input)) amounted to 0.327.

Take “GATGATTGTTCTCCCAGCTGATGAATTGAGCAGGTCGAGTAAACAAATTTTCCTAATCTTTCTGTTCAAGCGCCATCTAC”: the binding signal (RPM ratio (pull-down/input)) turned out to be 0.434.

For “GATGATTGTTCTCCCAGCTGATGAATTCGGACGTTCGAGTAAACAAATTTTCCTAATCTTTCTGTTCAAGCGCCATCTAC”, the binding signal (RPM ratio (pull-down/input)) turned out to be 0.358.

Take “GATGATTGTTCTCCCAGCTGATGAATTTGCGTTGTCGAGTAAACAAATTTTCCTAATCTTTCTGTTCAAGCGCCATCTAC”: the binding signal (RPM ratio (pull-down/input)) is 3.64.

As for “GATGATTGTTCTCCCAGCTGATGAATTTGTTTCTTCGAGTAAACAAATTTTCCTAATCTTTCTGTTCAAGCGCCATCTAC”, the binding signal (RPM ratio (pull-down/input)) stood at 6.78.

In the case of “GATGATTGTTCTCCCAGCTGATGAATTTGCACAGTCGAGTAAACAAATTTTCCTAATCTTTCTGTTCAAGCGCCATCTAC”, the binding signal (RPM ratio (pull-down/input)) was 0.457.

Regarding “GATGATTGTTCTCCCAGCTGATGAATTTCCTTCATCGAGTAAACAAATTTTCCTAATCTTTCTGTTCAAGCGCCATCTAC”, the binding signal (RPM ratio (pull-down/input)) was determined as 0.372.

In the case of “GATGATTGTTCTCCCAGCTGATGAATTAGATGTCTCGAGTAAACAAATTTTCCTAATCTTTCTGTTCAAGCGCCATCTAC”, the binding signal (RPM ratio (pull-down/input)) was 2.35.

As to “GATGATTGTTCTCCCAGCTGATGAATTACCGATTTCGAGTAAACAAATTTTCCTAATCTTTCTGTTCAAGCGCCATCTAC”, the binding signal (RPM ratio (pull-down/input)) came out at 0.455.

As for “GATGATTGTTCTCCCAGCTGATGAATTCCAAAGATCGAGTAAACAAATTTTCCTAATCTTTCTGTTCAAGCGCCATCTAC”, the binding signal (RPM ratio (pull-down/input)) stood at 0.179.

Consider “GATGATTGTTCTCCCAGCTGATGAATTAAGCAACTCGAGTAAACAAATTTTCCTAATCTTTCTGTTCAAGCGCCATCTAC”, for which the binding signal (RPM ratio (pull-down/input)) worked out at 5.03.

Regarding “GATGATTGTTCTCCCAGCTGATGAATTTTCGGACTCGAGTAAACAAATTTTCCTAATCTTTCTGTTCAAGCGCCATCTAC”, the binding signal (RPM ratio (pull-down/input)) was determined as 0.241.

As to “GATGATTGTTCTCCCAGCTGATGAATTCCCGCTCTCGAGTAAACAAATTTTCCTAATCTTTCTGTTCAAGCGCCATCTAC”, the binding signal (RPM ratio (pull-down/input)) was found to be 0.343.

As to “GATGATTGTTCTCCCAGCTGATGAATTCCCGAGATCGAGTAAACAAATTTTCCTAATCTTTCTGTTCAAGCGCCATCTAC”, the binding signal (RPM ratio (pull-down/input)) turned out to be 0.222.

Consider “GATGATTGTTCTCCCAGCTGATGAATTCGCGGCTTCGAGTAAACAAATTTTCCTAATCTTTCTGTTCAAGCGCCATCTAC”, for which the binding signal (RPM ratio (pull-down/input)) amounted to 0.373.

Turning to “GATGATTGTTCTCCCAGCTGATGAATTGGCTTATTCGAGTAAACAAATTTTCCTAATCTTTCTGTTCAAGCGCCATCTAC”, the binding signal (RPM ratio (pull-down/input)) amounted to 2.11.

Regarding “GATGATTGTTCTCCCAGCTGATGAATTAGCAACATCGAGTAAACAAATTTTCCTAATCTTTCTGTTCAAGCGCCATCTAC”, the binding signal (RPM ratio (pull-down/input)) was found to be 2.78.

As to “GATGATTGTTCTCCCAGCTGATGAATTTTTCAGCTCGAGTAAACAAATTTTCCTAATCTTTCTGTTCAAGCGCCATCTAC”, the binding signal (RPM ratio (pull-down/input)) was determined as 0.214.

On to “GATGATTGTTCTCCCAGCTGATGAATTTGTATAATCGAGTAAACAAATTTTCCTAATCTTTCTGTTCAAGCGCCATCTAC”, for which the binding signal (RPM ratio (pull-down/input)) was found to be 4.58.

For the sequence “GATGATTGTTCTCCCAGCTGATGAATTTCGCCGTTCGAGTAAACAAATTTTCCTAATCTTTCTGTTCAAGCGCCATCTAC”, the binding signal (RPM ratio (pull-down/input)) stood at 1.36.

On to “GATGATTGTTCTCCCAGCTGATGAATTTCTGATATCGAGTAAACAAATTTTCCTAATCTTTCTGTTCAAGCGCCATCTAC”, for which the binding signal (RPM ratio (pull-down/input)) stood at 0.373.

Regarding “GATGATTGTTCTCCCAGCTGATGAATTTCAGGCATCGAGTAAACAAATTTTCCTAATCTTTCTGTTCAAGCGCCATCTAC”, the binding signal (RPM ratio (pull-down/input)) came to 0.61.

As for “GATGATTGTTCTCCCAGCTGATGAATTTAGTGAATCGAGTAAACAAATTTTCCTAATCTTTCTGTTCAAGCGCCATCTAC”, the binding signal (RPM ratio (pull-down/input)) was 0.42.

As to “GATGATTGTTCTCCCAGCTGATGAATTCGGCTTATCGAGTAAACAAATTTTCCTAATCTTTCTGTTCAAGCGCCATCTAC”, the binding signal (RPM ratio (pull-down/input)) came to 1.47.

Take “GATGATTGTTCTCCCAGCTGATGAATTGTGGTGTTCGAGTAAACAAATTTTCCTAATCTTTCTGTTCAAGCGCCATCTAC”: the binding signal (RPM ratio (pull-down/input)) worked out at 2.27.

With “GATGATTGTTCTCCCAGCTGATGAATTGATCCAATCGAGTAAACAAATTTTCCTAATCTTTCTGTTCAAGCGCCATCTAC”, the binding signal (RPM ratio (pull-down/input)) was 0.367.

“GATGATTGTTCTCCCAGCTGATGAATTGGGTCGGTCGAGTAAACAAATTTTCCTAATCTTTCTGTTCAAGCGCCATCTAC”: the binding signal (RPM ratio (pull-down/input)) stood at 0.216.

Regarding “GATGATTGTTCTCCCAGCTGATGAATTCGTGATTTCGAGTAAACAAATTTTCCTAATCTTTCTGTTCAAGCGCCATCTAC”, the binding signal (RPM ratio (pull-down/input)) came out at 1.08.

As for “GATGATTGTTCTCCCAGCTGATGAATTACGACGCTCGAGTAAACAAATTTTCCTAATCTTTCTGTTCAAGCGCCATCTAC”, the binding signal (RPM ratio (pull-down/input)) came to 0.522.
